One block for each compound: values may come before it.
Tests used:
IDH1 R132H C269S = target: T1, IDH1 R132H C269S (Homo sapiens, UniProt O75874, C269S/R132H); experiment: Labeling of IDH1 R132H C269S mutant by Compound B4; type: binding; conditions: C269S mutant (FIG. 7B)
T1 construct: HA; expressed in transfected cells; host or cells: HEK293A
Experimental: (§1) For in-cell labeling, HEK293A cells with or without overexpression of proteins of interest were starved in DMEM medium with 10% dialyzed fetal bovine serum (DFBS) for 1 h and labeled using the covalent probes (10 μM) overnight. The cells were then washed and harvested using cold DPBS (14190250, Life Technologies). The cell pellets were isolated by centrifugation (500×g, 10 min) and lysed by TEA lysis buffer (50 mM TEA-HCl, pH 7.4, 150 mM NaCl, 1% Triton X-100, 0.2% SDS, 1×Protease inhibitor-EDTA free cocktail (05892791001, Roche), phosphatase inhibitor cocktail (P0044, Sigma-Aldrich)) on ice for 30 mins. The protein concentration was determined using Bio-Rad assay and adjusted to 1 mg/mL. For lysate labeling, HEK293A cells were grown in DMEM with 10% FBS. When confluence reached ˜90%, the cells were washed and harvested by cold DPBS. […] The protein concentration is determined using Bio-Rad assay and adjusted to 1 mg/mL. […]
(§2) 100 μL of labeled proteome was treated with 10 μL of freshly prepared “click” mixture containing 1 mM TBTA, 10 mM TCEP, 10 mM CuSO4, 1 mM Biotin-Azide and incubated for 1 h at room temperature. […] The bound proteins were eluted with a buffer containing 10 mM EDTA (pH 8.2) and 95% formamide and analyzed with SDS-PAGE. […]

IDH1 R132H [1] = target: T2, IDH1 R132H (Homo sapiens, UniProt O75874, R132H); experiment: Labeling of IDH1 R132H by Compound B4; type: binding; conditions: FIG. 7A, 7B
T2 construct: expressed in transfected cells; host or cells: HEK293A
Experimental: as §1, §2

IDH1 R132H [2] = target: T2, IDH1 R132H; experiment: Competition of in vitro Compound B4 labeling of recombinant IDH1 R132H by pretreatment with compound; type: binding; conditions: pretreatment 30 mins, in vitro (FIG. 7A)
Experimental: For in vitro treatment, the recombinant proteins were pretreated with compounds at indicated concentrations for 30 mins, followed by the labeling experiments. For in-cell treatment, HEK293A cells were pretreated with compounds under indicated concentrations for 8 h and then labeled with covalent probes for another 16 h. The structure of Compound C20 is shown below.

IDH1 mt (IDH1R132H) = target: T3, IDH1 mt (IDH1R132H) (Homo sapiens, UniProt O75874, R132H); experiment: Auto-palmitoylation of recombinant IDH1 mt with Alkyne Palmitoyl-CoA (western blot); type: biochemical; conditions: indicated concentrations, 30 mins (FIG. 6D)
T3 construct: purchased Cayman 14132

IDH1mutant (mt) = target: T4, IDH1mutant (mt) (Homo sapiens, UniProt O75874, R132H); experiment: Inhibition of palmitoylation of IDH1mt by compound treatment; type: cell-based; conditions: 1 μM (FIG. 7C)
T4 construct: expressed in transfected cells; host or cells: HEK293A
Experimental: as §1, §2

IDH1mtC269S = target: T5, IDH1mtC269S (Homo sapiens, UniProt O75874, C269S/R132H); experiment: Inhibition of palmitoylation of IDH1mtC269S by compound treatment; type: cell-based; conditions: 1 μM (FIG. 7C)
T5 construct: HA; expressed in transfected cells; host or cells: HEK293A
Experimental: as §1, §2

effect of mutation of cysteine 269 to serine on labeling of IDH1 R132H by the probe (IDH1 R132H C269S): dramatically abolished labeling
SMILES: C#CCCCCCCCCCCCCNC(=O)CBr [Compound B4, 2-bromo-N-(tetradec-13-yn-1-yl)acetamide]
site of labeling in IDH1mt (IDH1 R132H [1]): selectively labeled Cysteine 269 of IDH1mt

SMILES: O=C(CCl)N1CCC(C(O)(c2ccccc2)c2ccccc2)CC1 [Compound C20]
effect on in vitro labeling of recombinant IDH1 R132H with Compound B4 (IDH1 R132H [2]): suppressed

SMILES: C#CCCCCCCCCCCCCCC(=O)SCCNC(=O)CCNC(=O)[C@H](O)C(C)(C)COP(=O)(O)OP(=O)(O)OC[C@H]1O[C@@H](n2cnc3c(N)ncnc32)[C@H](O)[C@@H]1OP(=O)(O)O [Alkyne Palmitoyl-CoA]
auto-palmitoylation (labeling) of IDH1 somatic mutation version (IDH1 mt (IDH1R132H)): strong auto-palmitoylation activities

effect on palmitoylation of IDH1mt (IDH1mutant (mt)): inhibited palmitoylation
effect on palmitoylation of IDH1mtC269S (IDH1mtC269S): but not
SMILES: C=CC(=O)N1CCN([C@@H](CC2CC2)c2ccc([C@H](C)Nc3ncc4c(n3)N(CC)C(=O)OC4)cc2)CC1 [LY3410738]
